Sequences with one replicate were seen in a single cluster, so their values are uncertain.
Tested on: ATP
Assay: switch fluorescence ratio, 500 uM ATP over buffer (Cy3 cluster intensity, sum of 5 cycles each) (fold (ratio)); higher = stronger signal-on switching upon ATP binding; sequences stand for … in TCGTCGGCAGCGTCAGATGTGTATAAGAGACAGTTTTTTTTTTTTTTTTTTTTTTTTT…TC
Conditions: aptamer strand: ATP DNA aptamer (quencher-CACCTGGGGGAGTATTGCGGAGGAAGG + anchor), 100 nM annealed; ATP concentration: 500 uM; one replicate
How it was run: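 Exposure to 500 uM ATP lasted 15 min at 22 °C before imaging, and a selection-buffer image was taken beforehand, for Cy3-labelled switching-strand clusters on a modified Illumina MiSeq flow-cell annealed to 100 nM quencher-labelled ATP aptamer. Five buffer/ATP cycles were run with NaOH stripping and re-annealing between them. The fluorescence ratio per cluster is summed target-cycle over summed buffer-cycle Cy3 intensity, averaged per switch-domain sequence. Clusters outside 100-1000 RFU were excluded.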

CGCGAAAGGG showed a switch fluorescence ratio of 0.974.
For GAACCAGGGC, the switch fluorescence ratio was 1.01.
In the case of GTATTTCAGG, the switch fluorescence ratio is reported as 0.983.
TCTGGATTTG was tested, and the switch fluorescence ratio was 0.979.
TGGTTGTGGT gave a switch fluorescence ratio of 0.947.
Work on CGTGCCTAAC yielded a switch fluorescence ratio of 1.05.
GACATACAAG gave a switch fluorescence ratio of 1.09.
With ACACGAGGGG the switch fluorescence ratio was 1.04.
ATCGTAAAAA showed a switch fluorescence ratio of 1.02.
With CGTGCAGCAT the switch fluorescence ratio was 1.08.
With CGAATGATGT the switch fluorescence ratio was 1.02.
In the case of ATTCTCATTT, the switch fluorescence ratio is reported as 1.02.
ACCGGTGCAA was tested, and the switch fluorescence ratio was 2.95.
AAACAAAAGG gave a switch fluorescence ratio of 0.985.
For CGAGGGCAAA, the switch fluorescence ratio was 2.77.
CATTAAAAAA was tested, and the switch fluorescence ratio was 0.932.
Sequence GCAACATGGG has a switch fluorescence ratio of 1.03.
Work on TGTTTCAGC yielded a switch fluorescence ratio of 1.03.
GACCGGCTTA gave a switch fluorescence ratio of 1.03.
For AGCACTTAGT, the switch fluorescence ratio was 1.03.
Sequence GGTGGTAGAG has a switch fluorescence ratio of 1.01.
Work on ATAGGGGAGA yielded a switch fluorescence ratio of 1.01.
Work on GCGTGAGCAT yielded a switch fluorescence ratio of 1.01.
With GTGCGTCGTC the switch fluorescence ratio was 1.
GTGTTTCAAA was tested, and the switch fluorescence ratio was 1.03.
ACAACTTTAT gave a switch fluorescence ratio of 1.01.
Work on CTCAAAGCGG yielded a switch fluorescence ratio of 1.06.
Work on TTGTGCAGTA yielded a switch fluorescence ratio of 0.982.
AAGAGATGTT showed a switch fluorescence ratio of 0.955.
GTTGAATAAT gave a switch fluorescence ratio of 1.01.
Work on CAAGAGTGCG yielded a switch fluorescence ratio of 1.02.
Sequence GCTTTGAAGA has a switch fluorescence ratio of 0.992.
ATATCGATAC showed a switch fluorescence ratio of 1.54.
Sequence TTCTGGGATA has a switch fluorescence ratio of 1.01.
In the case of CGCGTACCCG, the switch fluorescence ratio is reported as 0.901.
ATTATCCCGC was tested, and the switch fluorescence ratio was 1.16.
TCGGAATGCT gave a switch fluorescence ratio of 2.7.
For AAAAGGGCCT, the switch fluorescence ratio was 1.06.
For GTTTATAACA, the switch fluorescence ratio was 0.995.
GCCTAACGAA was tested, and the switch fluorescence ratio was 1.01.
TGCTATTCGG gave a switch fluorescence ratio of 1.02.
AGAGACCGTA gave a switch fluorescence ratio of 0.936.
GGTTGGGCTG showed a switch fluorescence ratio of 0.972.
Work on GACTTATATT yielded a switch fluorescence ratio of 0.992.
Sequence CGTCTATTAA has a switch fluorescence ratio of 0.99.
For GGATGCAGGT, the switch fluorescence ratio was 1.01.
Work on CTGGGACTCA yielded a switch fluorescence ratio of 1.08.
GCGAATCATT showed a switch fluorescence ratio of 0.997.
In the case of ACGTGGAGGG, the switch fluorescence ratio is reported as 1.01.
Sequence ATCGTAGAC has a switch fluorescence ratio of 1.07.
For AACGATTAAA, the switch fluorescence ratio was 1.07.
ATCATGCTGA showed a switch fluorescence ratio of 0.98.
For TAGACTTGGA, the switch fluorescence ratio was 1.03.
AGCAGCGGTG gave a switch fluorescence ratio of 1.01.
ACCAGGACCG gave a switch fluorescence ratio of 1.16.
AAATTGGGGT showed a switch fluorescence ratio of 1.03.
Work on ATTGGACCGT yielded a switch fluorescence ratio of 0.988.
TAAGAAGAAC showed a switch fluorescence ratio of 1.06.
CGCCAAGGGA was tested, and the switch fluorescence ratio was 1.04.
ATCCAGCTCA showed a switch fluorescence ratio of 1.
TGGAAGCATT showed a switch fluorescence ratio of 0.964.
In the case of ACATGGCTTT, the switch fluorescence ratio is reported as 0.987.
Sequence GCGTGTGCTT has a switch fluorescence ratio of 0.957.
ACAATGTCGT showed a switch fluorescence ratio of 1.02.
Sequence GACAAGAGTG has a switch fluorescence ratio of 1.
Work on CATGTCAGGT yielded a switch fluorescence ratio of 0.981.
In the case of CTTCATGAGT, the switch fluorescence ratio is reported as 1.28.
With CAGTAGGGGA the switch fluorescence ratio was 0.974.
GGTGCAGAAG gave a switch fluorescence ratio of 1.
With ACTTTAGGCG the switch fluorescence ratio was 1.06.
CGGTGTTAGA was tested, and the switch fluorescence ratio was 1.03.
CAACTTCAC was tested, and the switch fluorescence ratio was 1.18.
In the case of TGCTGTGTGC, the switch fluorescence ratio is reported as 0.978.
ACCGCTCTGG gave a switch fluorescence ratio of 1.02.
With TGTGAATCAT the switch fluorescence ratio was 0.988.
In the case of TTTTCGAGG, the switch fluorescence ratio is reported as 0.992.
In the case of TACGTTAAGA, the switch fluorescence ratio is reported as 1.11.
AGTTATTGC showed a switch fluorescence ratio of 1.
CAATATTTAT was tested, and the switch fluorescence ratio was 1.02.
For AAGTACTGG, the switch fluorescence ratio was 1.25.
TGATGCTCCG was tested, and the switch fluorescence ratio was 0.993.
In the case of GTTGTGAGCA, the switch fluorescence ratio is reported as 0.969.
In the case of CTTGTATGGA, the switch fluorescence ratio is reported as 0.97.
Work on TCTCATATAG yielded a switch fluorescence ratio of 0.975.
With CTGAAGAAA the switch fluorescence ratio was 1.07.
CTCCAGGGGT gave a switch fluorescence ratio of 4.62.
Work on GATCGGTAGG yielded a switch fluorescence ratio of 0.979.
Sequence AGTGAACGTT has a switch fluorescence ratio of 0.988.
Work on CTTCGGTGGG yielded a switch fluorescence ratio of 0.998.
Sequence ATGACGGCGG has a switch fluorescence ratio of 0.978.
AGCGCTCTTC was tested, and the switch fluorescence ratio was 1.
GGTTGTTCAA was tested, and the switch fluorescence ratio was 0.947.
For ATCATTACAT, the switch fluorescence ratio was 1.05.
GACCGATCC showed a switch fluorescence ratio of 1.85.
Work on AAACTGTACC yielded a switch fluorescence ratio of 1.56.
TTTGCACACG was tested, and the switch fluorescence ratio was 1.04.
For TGGTGGCAGG, the switch fluorescence ratio was 1.02.
GGCGGCCCCT gave a switch fluorescence ratio of 1.02.
Sequence GTAGGGGGG has a switch fluorescence ratio of 1.
Work on ACAAAAGTGG yielded a switch fluorescence ratio of 1.02.
Sequence CAGATTAGCC has a switch fluorescence ratio of 0.997.
Sequence CGCATGGTCT has a switch fluorescence ratio of 1.01.
Work on CGAGGATAAT yielded a switch fluorescence ratio of 1.04.
CTGTAAGCGA showed a switch fluorescence ratio of 1.98.
ACAAAGGCA gave a switch fluorescence ratio of 0.999.
For AAGAGAATGT, the switch fluorescence ratio was 0.961.
For TAAACAACCT, the switch fluorescence ratio was 2.03.
For TTCAATCTCA, the switch fluorescence ratio was 1.01.
For TTTGCCCGCT, the switch fluorescence ratio was 1.01.
TGCTGAATCG was tested, and the switch fluorescence ratio was 0.996.
In the case of GCCGACGCCG, the switch fluorescence ratio is reported as 1.22.
Sequence TTCTAGGAGC has a switch fluorescence ratio of 0.975.
Work on CCTTGGTTGT yielded a switch fluorescence ratio of 0.975.
TTGTGATGCC showed a switch fluorescence ratio of 1.02.
Work on AGTCAAACTA yielded a switch fluorescence ratio of 0.973.
Work on CACTTTCCAG yielded a switch fluorescence ratio of 1.06.
With AATGAAGGAG the switch fluorescence ratio was 0.99.
For CAGATTTCAA, the switch fluorescence ratio was 1.02.
TAACTAACAT was tested, and the switch fluorescence ratio was 1.1.
For TTATGGTTCT, the switch fluorescence ratio was 0.976.
GGGAAGCGCT gave a switch fluorescence ratio of 0.997.
Work on GGTATAGACT yielded a switch fluorescence ratio of 0.984.
GGGGTCTTTG was tested, and the switch fluorescence ratio was 0.962.
Work on CTATTTTAAT yielded a switch fluorescence ratio of 1.01.
Work on GTTAAATGAA yielded a switch fluorescence ratio of 1.02.
In the case of GTGTGAGCCC, the switch fluorescence ratio is reported as 1.14.
AATTCATTGT showed a switch fluorescence ratio of 0.966.
With ACACGGACGA the switch fluorescence ratio was 1.37.
ATTCAAAGCA showed a switch fluorescence ratio of 1.78.
AAAACCGCAC was tested, and the switch fluorescence ratio was 1.5.
In the case of ATGACAAACC, the switch fluorescence ratio is reported as 1.4.
For TTCGTAAGGC, the switch fluorescence ratio was 1.18.
For TCAAGTAGAA, the switch fluorescence ratio was 1.04.
CATATATGAA was tested, and the switch fluorescence ratio was 1.01.
ACGTCGCAA gave a switch fluorescence ratio of 1.79.
Sequence TACACACCCG has a switch fluorescence ratio of 1.38.
Work on CCATTCGGGC yielded a switch fluorescence ratio of 1.03.
Work on ATGATTGTGA yielded a switch fluorescence ratio of 1.01.
CTGGTTGCCC gave a switch fluorescence ratio of 0.994.
AATTCGCCCG showed a switch fluorescence ratio of 1.02.
GTGTTGGGTT was tested, and the switch fluorescence ratio was 0.979.
TGGGCGCTGG showed a switch fluorescence ratio of 0.968.
For TCCTCGCACG, the switch fluorescence ratio was 3.1.
Sequence CGCACAGTGA has a switch fluorescence ratio of 1.05.
TAACGGAACG was tested, and the switch fluorescence ratio was 1.04.
In the case of AGGCCGGAA, the switch fluorescence ratio is reported as 1.05.
GTGATCCCGC showed a switch fluorescence ratio of 1.11.
GCTAGCCTAG was tested, and the switch fluorescence ratio was 1.07.
For ATACTGTCAA, the switch fluorescence ratio was 1.02.
In the case of TGTAAAGCCT, the switch fluorescence ratio is reported as 1.14.
CATAACGAGG was tested, and the switch fluorescence ratio was 1.02.
With CCGAATAAGT the switch fluorescence ratio was 1.01.
Sequence ATCCGATGTC has a switch fluorescence ratio of 1.24.
For GAGACGAGGG, the switch fluorescence ratio was 1.05.
CGGGCGAAAA was tested, and the switch fluorescence ratio was 0.975.
CAATGGGTCC showed a switch fluorescence ratio of 1.03.
Sequence CGAGCGTGTT has a switch fluorescence ratio of 1.02.
